# Assay results from the BET-seq Pho4 binding data (Le et al. 2018).
# Some of the results follow. Values were computed here from the reads of four pooled replicates and scatter widely.
# Target: T1, Pho4 (S. cerevisiae) (UniProt P07270)
# T1 sequence: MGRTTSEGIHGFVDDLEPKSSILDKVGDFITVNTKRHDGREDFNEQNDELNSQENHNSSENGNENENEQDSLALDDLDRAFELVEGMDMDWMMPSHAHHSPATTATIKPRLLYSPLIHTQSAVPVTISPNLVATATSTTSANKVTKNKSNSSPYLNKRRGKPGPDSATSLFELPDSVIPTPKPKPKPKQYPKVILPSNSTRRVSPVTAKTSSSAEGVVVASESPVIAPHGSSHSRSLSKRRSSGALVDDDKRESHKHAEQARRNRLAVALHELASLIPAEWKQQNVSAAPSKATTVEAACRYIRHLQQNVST
# Experiment: relative binding free energy (BET-seq); higher = weaker binding
# Conditions: reference: library average
row,Sequence,relative binding free energy
1,GGCTTCACGTGAGTTT,0.4 kcal/mol
2,ATAAGCACGTGTTATG,-0.17 kcal/mol
3,AAGTTCACGTGTGGTG,0.25 kcal/mol
4,GAGTACACGTGGTCTG,0.06 kcal/mol
5,CATGACACGTGGTGGC,0 kcal/mol
6,ATTGTCACGTGGAGTT,0.09 kcal/mol
7,GGGGTCACGTGCCGGC,0.19 kcal/mol
8,TTAGACACGTGGTCAA,0.07 kcal/mol
9,GTGTGCACGTGTCGGA,0.14 kcal/mol
10,AGTAGCACGTGTTCGG,-0.05 kcal/mol
11,GTTGCCACGTGTGGAT,-0.08 kcal/mol
12,TGGTGCACGTGTTACA,-0.21 kcal/mol
13,TTGTGCACGTGTGTAT,-0.01 kcal/mol
14,ATGAGCACGTGATTGA,0.02 kcal/mol
15,GTCGTCACGTGAAAGG,0.39 kcal/mol
16,ATATTCACGTGTAGTC,0.29 kcal/mol
17,AGTGTCACGTGAATCT,0.29 kcal/mol
18,GTAGACACGTGCGAGG,0.05 kcal/mol
19,GATAGCACGTGTCAGG,0.02 kcal/mol
20,ATAGGCACGTGGGGCT,-0.19 kcal/mol
21,CACTACACGTGGGGGG,-0.01 kcal/mol
22,GTAATCACGTGATAGG,0.35 kcal/mol
23,CCATTCACGTGTTGGG,0.25 kcal/mol
24,TTAGACACGTGTTGAG,0.03 kcal/mol
25,CTCATCACGTGTTTGG,0.2 kcal/mol
26,TTTTGCACGTGATAGC,0.09 kcal/mol

row,Sequence,relative binding free energy
1,TGTAGCACGTGGGAGA,-0.06 kcal/mol
2,GGACTCACGTGCGGGT,0.14 kcal/mol
3,TAGAACACGTGTAGTT,0.15 kcal/mol
4,GCCAGCACGTGGAGGG,-0.04 kcal/mol
5,AGTTTCACGTGGTTAG,0.21 kcal/mol
6,GTGGCCACGTGTTATT,0.09 kcal/mol
7,GTTAACACGTGTGGGC,0 kcal/mol
8,TGGGCCACGTGATGGT,0.12 kcal/mol
9,TTCGGCACGTGTATTT,0.01 kcal/mol
10,GGTCGCACGTGGGTAG,-0.1 kcal/mol
11,TTGTGCACGTGGAACG,0.05 kcal/mol
12,ATTTTCACGTGACTGG,0.31 kcal/mol
13,TTATGCACGTGAAGGA,0.22 kcal/mol
14,TGGTTCACGTGAAGTT,0.53 kcal/mol
15,GAGGTCACGTGGTTTT,0.23 kcal/mol
16,TGTCGCACGTGAGCGT,0.08 kcal/mol
17,TTCGCCACGTGTGTAG,0.03 kcal/mol
18,ATGGTCACGTGCAATT,0.1 kcal/mol
19,GCGGGCACGTGCGGCG,-0.19 kcal/mol
20,GCTTTCACGTGTTAGG,0.17 kcal/mol
21,TATCGCACGTGTGGTG,0.01 kcal/mol
22,GATAGCACGTGTAGTT,0.08 kcal/mol
23,GGTTACACGTGTTTTC,0.18 kcal/mol
24,TACGACACGTGGTGGG,0.03 kcal/mol
25,TGGTGCACGTGAAGTG,0.32 kcal/mol
26,TAGGGCACGTGATGGC,0.04 kcal/mol

row,Sequence,relative binding free energy
1,TAACTCACGTGGTGTA,0.06 kcal/mol
2,TTGGACACGTGAGGAG,0.25 kcal/mol
3,TAATGCACGTGGGTAC,-0.24 kcal/mol
4,TTTGCCACGTGCGAGT,-0.04 kcal/mol
5,GGGATCACGTGCTGTA,0.19 kcal/mol
6,AAGGTCACGTGAGTAG,0.33 kcal/mol
7,ATAAGCACGTGTCTGG,-0.06 kcal/mol
8,AATTACACGTGGGGAT,-0.01 kcal/mol
9,GTCTGCACGTGTGGGA,0.09 kcal/mol
10,ATATGCACGTGGGTTG,-0.18 kcal/mol
11,AGTTACACGTGTGTTG,0.09 kcal/mol
12,TGCGGCACGTGTGTAA,-0.11 kcal/mol
13,TTCGTCACGTGGGTCT,-0.03 kcal/mol
14,GTCGTCACGTGGAGGA,0.21 kcal/mol
15,ATAGCCACGTGTGAGT,0.07 kcal/mol
16,GGAGGCACGTGGAGTT,-0.02 kcal/mol
17,TATGGCACGTGTGCAG,-0.15 kcal/mol
18,AATGACACGTGTAAGG,0.13 kcal/mol
19,TGAGTCACGTGGTGCA,0.01 kcal/mol
20,GCAATCACGTGTAGTT,0.27 kcal/mol
21,TCTTTCACGTGGGGTG,0.18 kcal/mol
22,GGGTACACGTGTGGAG,0.17 kcal/mol
23,TTATTCACGTGATTGG,0.3 kcal/mol
24,TTTCGCACGTGAGATG,0.26 kcal/mol
25,AGGGTCACGTGTTAAT,0.23 kcal/mol
26,TGGTTCACGTGATGTT,0.43 kcal/mol

row,Sequence,relative binding free energy
1,GGGGTCACGTGAAGTT,0.43 kcal/mol
2,TTATACACGTGTAAGT,0.17 kcal/mol
3,GGACGCACGTGGTGGA,-0.1 kcal/mol
4,CGTGTCACGTGATGCT,0.18 kcal/mol
5,AATCTCACGTGATGGT,0.26 kcal/mol
6,GAAGACACGTGTCGGG,0.17 kcal/mol
7,TATCTCACGTGTATTT,0.27 kcal/mol
8,ACTTTCACGTGTGGTG,0.33 kcal/mol
9,GTTTCCACGTGTGGGG,0.22 kcal/mol
10,TATGGCACGTGCGTTA,-0.11 kcal/mol
11,AGCGGCACGTGTGTTG,-0.1 kcal/mol
12,TTTATCACGTGGGGAC,0 kcal/mol
13,AAAGTCACGTGGCATG,0.16 kcal/mol
14,TTTTGCACGTGTTCCT,0.02 kcal/mol
15,TTTCGCACGTGCGGGT,-0.02 kcal/mol
16,ACAGGCACGTGAAGTG,0.11 kcal/mol
17,TTACTCACGTGAAGTG,0.24 kcal/mol
18,CGGTGCACGTGGGAGT,-0.21 kcal/mol
19,TAATACACGTGTGTCG,0.03 kcal/mol
20,CTATGCACGTGAATTT,0.43 kcal/mol
21,TGAGTCACGTGTGGTG,0.17 kcal/mol
22,TGAGGCACGTGTGTGT,-0.02 kcal/mol
23,TTGGTCACGTGTGAGG,0.26 kcal/mol
24,AATTTCACGTGAGGTG,0.29 kcal/mol
25,TGCCACACGTGGAGGT,0.09 kcal/mol
26,GGGGGCACGTGGACGC,-0.1 kcal/mol

row,Sequence,relative binding free energy
1,CAAGGCACGTGATAGG,0.04 kcal/mol
2,AGCGGCACGTGTGTGA,0 kcal/mol
3,GAGGTCACGTGTGACT,0.25 kcal/mol
4,GGAGGCACGTGGCCGT,-0.19 kcal/mol
5,TAGGTCACGTGATGGG,0.29 kcal/mol
6,ACTGGCACGTGAGGAA,0.19 kcal/mol
7,TTGGTCACGTGCTTGT,0.08 kcal/mol
8,GTTCGCACGTGTGAGT,0.02 kcal/mol
9,TTTGGCACGTGATAAA,-0.12 kcal/mol
10,TAGTACACGTGGCGTG,-0.08 kcal/mol
11,TCGTACACGTGTGTGA,0.03 kcal/mol
12,AAGGGCACGTGGATTG,-0.17 kcal/mol
13,TTCTTCACGTGGGGTG,0.1 kcal/mol
14,GGGGGCACGTGGGTCT,-0.11 kcal/mol
15,GGTGACACGTGGATTG,0.15 kcal/mol
16,TGCGTCACGTGATAGG,0.16 kcal/mol
17,AATTTCACGTGGGTAA,0.2 kcal/mol
18,AGTGTCACGTGAGATA,0.24 kcal/mol
19,TTTTACACGTGGTAAA,0.01 kcal/mol
20,GCTTGCACGTGGGATT,-0.17 kcal/mol
21,GTACGCACGTGGTATA,-0.06 kcal/mol
22,AGTCACACGTGTAGTT,-0.01 kcal/mol
23,GAGTGCACGTGGTGAG,0.05 kcal/mol
24,AGTAACACGTGGCGGG,-0.02 kcal/mol
25,GCGTTCACGTGGTGCA,0.3 kcal/mol
26,ATTATCACGTGTTGGA,0.14 kcal/mol

row,Sequence,relative binding free energy
1,GTAAACACGTGTTGTT,0.04 kcal/mol
2,GTACGCACGTGGGAGG,-0.24 kcal/mol
3,GTTGGCACGTGAGTAT,0.05 kcal/mol
4,AATGCCACGTGGCGTG,-0.11 kcal/mol
5,AAAGTCACGTGTGATG,0.14 kcal/mol
6,TGGGGCACGTGGACTA,-0.21 kcal/mol
7,GGAGTCACGTGTTATA,0.12 kcal/mol
8,TGAAACACGTGTTTTG,0 kcal/mol
9,ATTCACACGTGTAGGG,0.11 kcal/mol
10,TGTTTCACGTGGCTGT,0.14 kcal/mol
11,AGTGGCACGTGACTGT,-0.05 kcal/mol
12,GTCTGCACGTGTCGGG,0.11 kcal/mol
13,TGGGACACGTGCGAGT,0.02 kcal/mol
14,GTGATCACGTGAAGGC,0.3 kcal/mol
15,GTTTGCACGTGCTTGC,0.05 kcal/mol
16,GTTTTCACGTGAGCGA,0.42 kcal/mol
17,GGCGACACGTGGGGTC,-0.18 kcal/mol
18,TTATCCACGTGTTGTT,0.04 kcal/mol
19,GGGATCACGTGTGTTT,0.29 kcal/mol
20,GTGGTCACGTGTTGTC,0.12 kcal/mol
21,GATATCACGTGGTGCT,0.15 kcal/mol
22,GTATGCACGTGGAGTC,-0.03 kcal/mol
23,ATTCTCACGTGTGTAG,0.03 kcal/mol
24,GTGTCCACGTGTGTAG,0.05 kcal/mol
25,CGTATCACGTGCAGGG,0.1 kcal/mol
26,TCGCTCACGTGGTGGG,0.23 kcal/mol

row,Sequence,relative binding free energy
1,ATTTGCACGTGTGTAA,0 kcal/mol
2,TTCGGCACGTGCTTAG,-0.09 kcal/mol
3,CTGTTCACGTGTATGT,0.24 kcal/mol
4,GTATTCACGTGAGGAT,0.24 kcal/mol
5,CCGGTCACGTGGTTGT,0.22 kcal/mol
6,ATGGGCACGTGGTGGA,-0.17 kcal/mol
7,TTGGGCACGTGACGAA,0.11 kcal/mol
8,AGATTCACGTGTTGCG,0.28 kcal/mol
9,TAATACACGTGGTAGT,-0.02 kcal/mol
10,CAATTCACGTGAGGTT,0.29 kcal/mol
11,CGAGGCACGTGAATTT,0.36 kcal/mol
12,TTGGTCACGTGGATAT,0.09 kcal/mol
13,ATTAGCACGTGGGAGA,-0.18 kcal/mol
14,TTGGGCACGTGTTAGT,-0.01 kcal/mol
15,GTGTCCACGTGTGTGT,0.08 kcal/mol
16,TTTCTCACGTGAAAGG,0.43 kcal/mol
17,TGGTGCACGTGCGAGT,-0.07 kcal/mol
18,TCTGGCACGTGTGGAT,0.14 kcal/mol
19,ATTTGCACGTGAAGGT,0.29 kcal/mol
20,GGTATCACGTGTCGCG,0.19 kcal/mol
21,TACAGCACGTGTTAGT,-0.05 kcal/mol
22,GGTCGCACGTGGAATT,0.19 kcal/mol
23,CTGGGCACGTGGTGAA,-0.25 kcal/mol
24,TAATACACGTGTCGTA,0.1 kcal/mol
25,TTATACACGTGGAAGG,0.11 kcal/mol
26,CGTCACACGTGGGGTG,-0.06 kcal/mol

row,Sequence,relative binding free energy
1,CGGGTCACGTGAGCTG,0.25 kcal/mol
2,AGATTCACGTGTAGTG,0.16 kcal/mol
3,TTGCTCACGTGGGAGG,0.2 kcal/mol
4,AAAAGCACGTGTAGTG,-0.02 kcal/mol
5,GGAGCCACGTGATCGG,0.24 kcal/mol
6,AACTTCACGTGTGAGG,0.32 kcal/mol
7,GGTTGCACGTGGCTTT,-0.02 kcal/mol
8,GGAGTCACGTGTGCTT,0.03 kcal/mol
9,GGATACACGTGGTACG,0.08 kcal/mol
10,TAACGCACGTGGTTGT,-0.1 kcal/mol
11,AGGTGCACGTGTCGTA,-0.06 kcal/mol
12,CTAGGCACGTGTTAGT,-0.27 kcal/mol
13,TGCATCACGTGAGTTT,0.09 kcal/mol
14,GGCGTCACGTGTGTGG,0.18 kcal/mol
15,CGGTGCACGTGTAGAA,0.06 kcal/mol
16,TATGGCACGTGTATCG,0.02 kcal/mol
17,GGGGTCACGTGCTAGT,0 kcal/mol
18,ATGTTCACGTGTGTAA,0.29 kcal/mol
19,ATAGGCACGTGGGCTT,-0.16 kcal/mol
20,TTAGGCACGTGGGACT,-0.29 kcal/mol
21,GTATGCACGTGAGGGT,0.28 kcal/mol
22,AGGGTCACGTGAGGAG,0.21 kcal/mol
23,CTGCTCACGTGTGTAG,0.2 kcal/mol
24,AGTTGCACGTGTCATG,0.02 kcal/mol
25,AAAGTCACGTGGGGAT,0.08 kcal/mol
26,TAGATCACGTGGGCAA,0.29 kcal/mol

row,Sequence,relative binding free energy
1,ATATTCACGTGAGCTT,0.25 kcal/mol
2,GGCGGCACGTGATTTG,0.17 kcal/mol
3,GACATCACGTGGGTGG,-0.07 kcal/mol
4,GGTGCCACGTGAGGAG,0.19 kcal/mol
5,TTAGCCACGTGTTCGG,-0.1 kcal/mol
6,TGAGGCACGTGGATTG,0.04 kcal/mol
7,CCGAGCACGTGGTGGG,-0.22 kcal/mol
8,TGTGCCACGTGGAGGC,-0.09 kcal/mol
9,TGAGACACGTGGCAGT,0.01 kcal/mol
10,GATTGCACGTGCGTGA,0.03 kcal/mol
11,ACGGTCACGTGTTGTA,0.01 kcal/mol
12,GCGTACACGTGGGGGG,-0.01 kcal/mol
13,ATGGACACGTGTTATC,0.15 kcal/mol
14,CCGTACACGTGGTGTG,-0.01 kcal/mol
15,TTGTTCACGTGTGGCT,0.4 kcal/mol
16,TGCATCACGTGTGTGC,0.17 kcal/mol
17,TGTTACACGTGCAAGG,0.23 kcal/mol
18,GTGGGCACGTGACTGT,0.06 kcal/mol
19,ATGTTCACGTGGTATT,0.1 kcal/mol
20,CATAACACGTGTTGGT,-0.04 kcal/mol
21,ATGGCCACGTGTGGTT,-0.04 kcal/mol
22,GGTGGCACGTGTTCGA,-0.18 kcal/mol
